Measurements taken from the RNAGym collection of RNA variant scans (doi:10.1093/nar/gkz1192).
Read counts are not given, so values of variants with three or more changes are uncertain.

B1: CPEB3 Ribozyme (parent)
chain: UAACAGGGGGCCACAGCAGAAGCGUUCACGUCGCAGCCCCUGUCAGAUUCUGGUGAAUCUGCGAAUUCUGCUGUAUAUCUC

Variants of: B1
Test: self-cleavage, relative activity (ratio to wild type); higher = more cleavage; in vitro, sequencing
In short: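 For each CPEB3 ribozyme variant, relative activity is its cleaved/total read fraction divided by the unmutated ribozyme's. Barcoded error-prone PCR libraries were transcribed by T7 RNA polymerase (5 hours, 37°C) and held in DNase I for 15 min before an EDTA stop, with cleavage occurring throughout. Template-switching reverse transcription and Illumina sequencing were used to read the RNAs. A 5-read minimum applied, and results are the mean of three batches.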

Row | Variant | self-cleavage
1 | A20U U31C G73A | 0.33
2 | A21G A57U U74C | 0.53
3 | A21G A28C C32G | 0.16
4 | A21G A28G U72A | 0.15
5 | A21G A28G C59A U72A | 0.05
6 | A21G A28U U31A U66C U80C | 0.43
7 | A21G G63A U80C | 0.54
8 | A21G A45G A64U U67A U80A | 0.11
9 | A20U U54G A64G U78C | 0.07
10 | A21G C39U U51C C81U | 0.38
11 | A21G A28G U31C U51A U60C A65C A75G | 0.08
12 | A21G G73U U80C | 0.86
13 | A21G A56U A57G U60C | 0.19
14 | A21G C23U U31A A47U U60C A77U | 0.04
15 | A21G A35G U51A A75G | 1.08
16 | A20U U43C A56G | 0.17
17 | A20U U41C U51A G52U A65G U69A U72C | 0.13
18 | A21G G36A U54C U78A | 0.14
19 | A20U U54A A57U U60A G63A | 0.15
20 | A21G A57U U58C | 0.33
21 | A20U U41C U51A | 0.2
22 | A21G G30U U43C A64G | 0.13
23 | A20U U51C U58C U60A | 0.13
24 | A20U U41C U80A | 0.52

Row | Variant | self-cleavage
25 | A21G C27G U49C G63A U76G | 0.05
26 | A21G C68G A75G | 0.14
27 | A20U U72A U80A | 0.14
28 | A21G C50U A64U | 0.22
29 | A21G A35U U58G U66C | 0.12
30 | A21G C32G U49C U80A | 0.06
31 | A21C U66C U69C | 0.08
32 | A20U U41G A56G | 0.07
33 | A20U U43C U58A U74C | 0.11
34 | A20U U25C C32A A45U U51A U69C | 0.06
35 | A20U U26G U48C | 0.19
36 | A21G C32A A57G A65G | 0.17
37 | A21G G22A A45U A47C U51A U58C U76C | 0.04
38 | A20U U26C A64G | 0.42
39 | A21G G42A A56U | 0.16
40 | A21G A75G U80C | 0.35
41 | A21G A28G U43A | 0.41
42 | A21G A28G U60A C71U | 0.06
43 | A21C A45U U69C | 0.46
44 | A21G A45U A47G U72C | 0.16
45 | A21G A45C G46A | 0.18
46 | A20U U58G A64G U78C | 0.19
47 | A21G A35G C50U | 1.2
48 | A20U U41A A56U U66A | 0.17

Row | Variant | self-cleavage
49 | A20U U48C U49C U60A U80C | 0.28
50 | A21G C62U U80A | 0.11
51 | A21G A28U U41A A64G | 0.1
52 | A21G G24C U76C | 0.08
53 | A21G A45G U66C | 0.91
54 | A20U U43C A47G | 0.28
55 | A21C U41C U80C | 0.22
56 | A21G C62A U78C | 0.17
57 | A21G A28C U49C U60A A75G U78C | 0.05
58 | A21G A28U U41C A47G | 0.42
59 | A20U U49C U51A | 0.35
60 | A21G G33A U69A | 0.06
61 | A21G A64U U72C | 0.21
62 | A21G C29A U51C | 0.25
63 | A21G A64G U76C | 0.43
64 | A20U U74C A75U | 0.51
65 | A20U U51A U72A | 0.17
66 | A21G A35G U72C | 1.2
67 | A21G C27A U41A U60A | 0.16
68 | A20U U25C U41C A64U U72A | 0.1
69 | A20U U26C A35G C37U U43C | 0.63
70 | A21G G24C U41A U78C | 0.17
71 | A20U U41A U67C | 0.3
72 | A21G C23U G30A A65G | 0.14

Row | Variant | self-cleavage
73 | A20U U43C U49C U80C | 0.16
74 | A20U U51A A77G U80C | 0.26
75 | A21G C29G U41A | 0.18
76 | A21G G52C A57U U78C | 0.3
77 | A21G A35G A47G A56U U69C | 0.3
78 | A21G A28G C29G | 0.08
79 | A20U U25A U72C G73A U80A | 0.06
80 | A21G A45G A64U | 0.28
81 | A21G G24U C38U U49A U72C U74A | 0.04
82 | A21G G53A U80C | 0.71
83 | A21G C40U U72A U80C | 0.75
84 | A21G G24A A64U | 0.11
85 | A20U U31A U54G U67C | 0.11
86 | A21G A35G U41A | 0.21
87 | A21G C39U A65G A77G U78C | 0.03
88 | A21G C39U A57U | 0.24
89 | A20U U43C A47G A77G | 0.12
90 | A21G G24A U51A U60C U80C | 0.23
91 | A21G A57G A64G U66C U67A | 0.25
92 | A21G A28G U49C C71A | 0.1
93 | A21G A45G A47G U49C U69A | 0.23
94 | A21G C23G U41C A64G | 0.19
95 | A20U U26C A35G C37U U43C U54C U67C | 0.2
96 | A21G A28G A45G A56G | 0.07

Row | Variant | self-cleavage
97 | A20U U31A U76C | 0.67
98 | A20U U25C U80A | 0.21
99 | A21G U25A C39U U49A G52A A65G A77G | 0.03
100 | A21G A35G G42C | 0.16
101 | A21G C23G C34U U43G C44G U54C U66C | 0.05
102 | A21G G24A U25C G70A | 0.29
103 | A20U U31G U49A U66C | 0.1
104 | A20U U31C G42A U51C | 0.11
105 | A21G A56G C62U U80A | 0
106 | A20U U49C U51A U78A | 0.1
107 | A21G A28C A57G | 0.27
108 | A21C A45G A64G U66C C68A | 0.05
109 | A21G C38U U41A A47G U51A U78C | 0.06
110 | A21G C23A U60A U69C | 0.29
111 | A21G A75G A77U | 0.33
112 | A21C A47G A65U | 0.06
113 | A21G A47U U74A | 0.44
114 | A20U U49A U80C | 0.44
115 | A21G A28G U54C A64U C81U | 0.08
116 | A21G G24A A28G | 0.36
117 | A21C G63C U69C U80C | 0.13
118 | A21G G24A U54A | 0.14
119 | A21G C40A G63U | 0.37
120 | A20U U43C U54A A64G A65G U78C | 0.1

Row | Variant | self-cleavage
121 | A20U U26A C40A U67C U78C | 0.06
122 | A20U U26C A28G U58C A64G A75G | 0.03
123 | A21G A45G U58C | 0.18
124 | A21G G52U U54A | 0.26
125 | A21G C44G A75G | 0.04
126 | A21G A28G G52C A56G | 0.15
127 | A21G A28U G46U A57G A75U | 0.22
128 | A21C U51A A57G | 0.09
129 | A21G A45G U49C U60C C62U U74C | 0.14
130 | A20U U25C U43C A45G C50U A64G U67A | 0.08
131 | A21G A35U U41A A45G A56G | 0.18
132 | A20U U26C C38G U51C A64U | 0.07
133 | A21G C23A U41C A56G | 0.23
134 | A20U U41C A64U U72C | 0.14
135 | A21G C34U U69A U74C U78A | 0.11
136 | A20U U41A C44A C71U U78A | 0.09
137 | A21G A28G A45G U69A U80A | 0.2
138 | A21G C32U U72A | 0.17
139 | A21G G24A U51C | 0
140 | A20U U41A U51A C68U U72G | 0.03
141 | A20U U48C U74G | 0.33
142 | A21G C59G A64U U78C | 0.1
143 | A21G A28U A47G A56G A57G U78C | 0.17
144 | A20U U25G U78C U80C | 0.04

Row | Variant | self-cleavage
145 | A21G A28U A35U U51A U78C | 0.06
146 | A20U U41C U60C U69A U72C | 0.2
147 | A21G A35U A47G U60C A77G | 0.02
148 | A21C C34A U41C U78C | 0.05
149 | A21G C23U U25C C59U | 0.47
150 | A20U U51A A57C G73A | 0.32
151 | A21C A35C A45U U69A | 0.2
152 | A21G A57G U67C | 0.14
153 | A21G A35G A65U U67C U72A U74C U80A | 0.14
154 | A21G A47C U54C C81A | 0.25
155 | A21G A35G G36U U49C G73U | 0.05
156 | A20U U25A U80C | 0.66
157 | A21G C23U U48A U58C | 0.22
158 | A21G A57G U69A U78C | 0.23
159 | A21G G46A U78A | 0.35
160 | A20U U26C C32U U78C | 0.1
161 | A21G C23U C62G A65G A77G U80C | 0.09
162 | A21G A45G C50A U78C | 0.12
163 | A21G C40U U51A | 0.21
164 | A21G A56G C59U | 0.21
165 | A21G A28G U49G C62A | 0.08
166 | A21G A35U U49C A56U A77U | 0.08
167 | A21G A28G U49A U51A A57G A64G U72C | 0.02
